Assay results published in PubChem BioAssay AID360 (National Center for Advancing Translational Sciences (NCATS), 2006).
In all, about 48,000 compounds went through this assay and about 550 (1.1%) were called active. About 4% were inconclusive and are not listed. Rule as the data show it: active = potency below about 15 µM; inconclusive = mostly about 16 µM to 33 µM; inactive = weaker than that. This is one part of the list.

Molecular target: Lysosomal acid glucosylceramidase (Homo sapiens) (UniProt P04062)
Assay: Glucocerebrosidase;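 also: the screen sought inhibitors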
Conditions: purified enzyme, resorufin glucoside fluorescence (screen aimed at inhibitors), 20 min
How it was run: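 Wild-type enzyme at 0.2 nM final in 50mM citric acid/KH2PO4, 10mM sodium taurocholate, 0.01% tween-20, pH 5.9, with resorufin beta-D-glucopyranoside at 30 uM final. Compounds titrated, 20 min at RT, red fluorescence read; AC50 from titration.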
Potency is read from the fitted curve at half-maximal effect.

Chain of UniProt P04062 (P04062 whole entry, looked up): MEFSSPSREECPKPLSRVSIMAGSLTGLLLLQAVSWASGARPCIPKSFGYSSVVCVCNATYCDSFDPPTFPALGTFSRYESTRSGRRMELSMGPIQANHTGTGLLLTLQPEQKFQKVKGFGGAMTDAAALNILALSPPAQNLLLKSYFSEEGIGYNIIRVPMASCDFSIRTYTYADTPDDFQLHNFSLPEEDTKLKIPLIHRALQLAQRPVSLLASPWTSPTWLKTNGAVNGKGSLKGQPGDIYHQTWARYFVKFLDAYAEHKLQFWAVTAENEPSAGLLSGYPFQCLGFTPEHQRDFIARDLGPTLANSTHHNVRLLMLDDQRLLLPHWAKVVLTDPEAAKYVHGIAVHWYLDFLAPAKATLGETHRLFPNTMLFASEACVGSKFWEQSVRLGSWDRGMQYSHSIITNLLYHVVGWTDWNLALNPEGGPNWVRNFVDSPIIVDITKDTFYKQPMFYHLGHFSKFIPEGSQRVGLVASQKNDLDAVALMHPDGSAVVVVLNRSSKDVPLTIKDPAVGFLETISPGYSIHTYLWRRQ

Potency, inactive:
O=S(=O)(c1ccc(S(=O)(=O)N(Cc2cccs2)CC2CCCO2)cc1)N1CCCCC1 (stereo not drawn) > 76.9 µM, COc1cccc(N(C(=O)CNC(=O)c2ccco2)C(C(=O)NC2CCCCC2)c2ccncc2)c1 (stereo not drawn) > 76.9 µM, CCOc1cc(C#N)c(NC(=O)Cn2nnc3ccccc32)cc1OCC > 76.9 µM, O=C(NCc1ccc2c(c1)OCO2)c1cccc(N2CCCC2=O)c1 > 76.9 µM, Nc1nnc(-c2cc3ccccc3oc2=O)s1 > 76.9 µM, NC(=O)CSc1nnc(-c2ccc(O)cc2)n1Cc1ccco1 > 76.9 µM, O=C(CSc1nnc(CNC(=O)c2cccs2)o1)NC1CCCC1 > 76.9 µM, O=C(c1ccccc1)C1CCc2occc2C1=O (stereo not drawn) > 76.9 µM, CC(C)(C)n1nnnc1C(c1ccc(C#N)cc1)N1CCCC2(CCCCC2)C1 (stereo not drawn) > 76.9 µM, Cc1ccc2[nH]c3c(c2c1)CCc1cn[nH]c1-3 > 76.9 µM, COc1ccc(OCC2CNC(=O)O2)cc1 (stereo not drawn) > 76.9 µM, COc1ccc(-c2nnc(-c3ccc(N(C)C)cc3)o2)cc1 > 76.9 µM, Cc1ccc(Cl)cc1N1CCN(C(=O)CCC(=O)O)CC1 > 76.9 µM, Cc1cccc(-n2c(CCCN3C(=O)c4ccccc4C3=O)nc3ccccc3c2=O)n1 > 76.9 µM, CC1COC(c2cccn2Cc2ccccc2Cl)=N1 (stereo not drawn) > 76.9 µM, COc1ccc2c(CC(=O)N3CCN(S(=O)(=O)c4cccs4)CC3)coc2c1 > 76.9 µM, COc1cc(OC)cc(C(=O)NCCNC(=O)c2ccccc2)c1 > 76.9 µM, COc1ccc(NC(=O)CN(c2ccccc2)S(=O)(=O)N(C)C)cc1OC > 76.9 µM, CCOC(=O)N1CCN(C(=O)CS(=O)(=O)c2cn(Cc3cccc(F)c3)c3ccccc23)CC1 > 76.9 µM, COc1cccc2cc(C(=O)Nc3cccc(C)n3)c(=O)oc12 > 76.9 µM, COc1cccc(-c2nnc(SCc3cccnc3)o2)c1 > 76.9 µM, Cc1ccc(-n2c(SCC(=O)NCC3CCCO3)nc3c(c2=O)SCC3)cc1 (stereo not drawn) > 76.9 µM, CCOc1ccccc1N(CC(=O)NCc1ccc(OC)cc1)S(C)(=O)=O > 76.9 µM, Cc1nc(C)c(C(=O)C2=C(O)C(=O)N(CCCn3ccnc3)C2c2ccccc2)s1 (stereo not drawn) > 76.9 µM, c1ccc(OCCN2C3=NCCN3c3ccccc32)cc1, O=C(COc1ncnc2ccccc12)NCCC1=CCCCC1 > 76.9 µM, Cc1noc(C)c1CSc1nc2sc(C)c(C)c2c(=O)n1-c1ccccc1 > 76.9 µM, CCC(=O)Nc1cc2nn(-c3ccc(OC)cc3)nc2cc1C > 76.9 µM, O=C(C1CCCN(Cc2cccnc2)C1)N1CCCCC1 (stereo not drawn) > 76.9 µM, COC(=O)c1c(C(=O)OC)c(C)n(Cc2ccco2)c1C > 76.9 µM, CC(C)n1c(CN2CCN(C)CC2)nc2c1c(=O)n(C)c(=O)n2C > 76.9 µM, COc1cccc(C(CC(=O)NCC2CCCO2)NS(=O)(=O)c2ccc(C)cc2)c1OC (stereo not drawn) > 76.9 µM, CCOC(=O)N1CCC(NC(=O)CNS(=O)(=O)c2ccc(Br)s2)CC1 > 76.9 µM, CCOc1ccc(OCCSc2nc(C)cc(=O)[nH]2)cc1 > 76.9 µM, Cc1cc(S(=O)(=O)NCCN2CCOCC2)c(C)s1 > 76.9 µM, Cc1ccccc1SCC(=O)NC1CCOC1=O (stereo not drawn) > 76.9 µM, COc1cccc(NS(=O)(=O)c2cc(C)ccc2OC)c1 > 76.9 µM, Cc1ccc(N2CCn3c2nc2c3c(=O)n(CCc3ccccc3)c(=O)n2C)cc1 > 76.9 µM, Cc1ccc(N(C(C)C(=O)Nc2ccc3c(c2)OCO3)S(C)(=O)=O)cc1 (stereo not drawn) > 76.9 µM, O=C(O)CCCC(=O)Nc1ccccc1C(=O)N1CCCC1 > 76.9 µM, Cn1c(=O)c2c(nc(Br)n2Cc2ccccc2Cl)n(C)c1=O > 76.9 µM, Cn1c(=O)[nH]c(=O)c2c1nc(N1CCOCC1)n2CC(O)COc1ccc2ccccc2c1 (stereo not drawn) > 76.9 µM, O=C(c1cc2ccccc2c(=O)o1)N1CCCc2ccccc21 > 76.9 µM, Cc1ccc(-n2nnc3c(=O)n(CC(=O)NCC4CCCO4)cnc32)cc1 (stereo not drawn) > 76.9 µM, COc1ccc(-c2ccc(-c3noc(-c4ccccc4F)n3)c(OC)n2)cc1 > 76.9 µM, O=C(O)c1cccc(S(=O)(=O)N2CCSCC2)c1 > 76.9 µM, COc1ccc(CN(C(=O)c2oc3ccccc3c2C)C2CCS(=O)(=O)C2)cc1 (stereo not drawn) > 76.9 µM, CCCS(=O)(=O)N1CCN(c2ccccn2)CC1 > 76.9 µM, O=C(C1CCCN1S(=O)(=O)c1ccc(Cl)c(Cl)c1)N1CCOCC1 (stereo not drawn) > 76.9 µM, CCCCCn1c(=O)[nH]c2cc(C(=O)O)ccc2c1=O > 76.9 µM, COc1cc2c(C)nc(C)c(C#N)c2cc1OC > 76.9 µM, COc1ccc(S(=O)(=O)N2CCOCC2)cc1C(=O)Nc1ccon1 > 76.9 µM, O=C(CSc1nccn1-c1cccc(Cl)c1)NC1CCCC1 > 76.9 µM, Cc1cc(NC(=O)CCCC(=O)OCC(F)(F)C(F)F)cc(C)c1C(=O)O > 76.9 µM, COc1ccc(NC(=O)CCCNS(=O)(=O)c2cccs2)cc1 > 76.9 µM, Cc1ccc(-c2nn3c(C)nnc3c3ccccc23)cc1S(=O)(=O)NCc1ccco1 > 76.9 µM, CC(=O)c1cccc(NC(=O)N2CCCC2C(=O)NCc2ccccc2)c1 (stereo not drawn) > 76.9 µM, COc1cc(-c2nc(N)n[nH]2)cc(OC)c1OC > 76.9 µM
